# Where a chain is given by its changes, count along the chain named. The list shows a part of the results.
# T1: RBFOX1 RRM (Homo sapiens, UniProt Q9NWB1 109-208)
# T1 sequence: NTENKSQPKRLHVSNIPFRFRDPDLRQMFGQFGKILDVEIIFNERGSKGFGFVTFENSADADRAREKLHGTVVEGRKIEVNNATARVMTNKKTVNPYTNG
# B1: GAUCUGC (DNA:RNA)
# RNA: GGGAGACCGGAAUUCAGAUUGUCCGAUCUGCUUAAAUCCCGUCGUAGCCACCA
# DNA 1: CAATCTGAATTCCGGTCTCCC
# DNA 2: TGGTGGCTACGACGGGATT
# B2: CGCCACA (DNA:RNA)
# RNA: B1 RNA with G25C, A26G, U27C, U29A, G30C, C31A
# DNA 1: CAATCTGAATTCCGGTCTCCC
# DNA 2: TGGTGGCTACGACGGGATT
# B3: GUGUUUG (DNA:RNA)
# RNA: B1 RNA with A26U, U27G, C28U, G30U, C31G
# DNA 1: CAATCTGAATTCCGGTCTCCC
# DNA 2: TGGTGGCTACGACGGGATT
# B4: UGUGGAG (DNA:RNA)
# RNA: B1 RNA with G25U, A26G, C28G, U29G, G30A, C31G
# DNA 1: CAATCTGAATTCCGGTCTCCC
# DNA 2: TGGTGGCTACGACGGGATT
# B5: CCAUAUG (DNA:RNA)
# RNA: GGGAGACCGGAAUUCAGAUUGUCCCCAUAUGUUAAAUCCCGUCGUAGCCACCA
# DNA 1: CAATCTGAATTCCGGTCTCCC
# DNA 2: TGGTGGCTACGACGGGATT
# B6: CUAAAAC (DNA:RNA)
# RNA: B5 RNA with C26U, U28A, U30A, G31C
# DNA 1: CAATCTGAATTCCGGTCTCCC
# DNA 2: TGGTGGCTACGACGGGATT
# B7: UUCCGAC (DNA:RNA)
# RNA: B1 RNA with G25U, A26U, U27C, U29G, G30A
# DNA 1: CAATCTGAATTCCGGTCTCCC
# DNA 2: TGGTGGCTACGACGGGATT
# B8: UAGUAUC (DNA:RNA)
# RNA: B5 RNA with C25U, C26A, A27G, G31C
# DNA 1: CAATCTGAATTCCGGTCTCCC
# DNA 2: TGGTGGCTACGACGGGATT
# B9: UACUGUA (DNA:RNA)
# RNA: B5 RNA with C25U, C26A, A27C, A29G, G31A
# DNA 1: CAATCTGAATTCCGGTCTCCC
# DNA 2: TGGTGGCTACGACGGGATT
# B10: GUGCCCA (DNA:RNA)
# RNA: B1 RNA with A26U, U27G, U29C, G30C, C31A
# DNA 1: CAATCTGAATTCCGGTCTCCC
# DNA 2: TGGTGGCTACGACGGGATT
# B11: CGGAGAU (DNA:RNA)
# RNA: B5 RNA with C26G, A27G, U28A, A29G, U30A, G31U
# DNA 1: CAATCTGAATTCCGGTCTCCC
# DNA 2: TGGTGGCTACGACGGGATT
# B12: GUCUGAA (DNA:RNA)
# RNA: B5 RNA with C25G, C26U, A27C, A29G, U30A, G31A
# DNA 1: CAATCTGAATTCCGGTCTCCC
# DNA 2: TGGTGGCTACGACGGGATT
# B13: UCUCAAA (DNA:RNA)
# RNA: B5 RNA with C25U, A27U, U28C, U30A, G31A
# DNA 1: CAATCTGAATTCCGGTCTCCC
# DNA 2: TGGTGGCTACGACGGGATT
# B14: GACAUGC (DNA:RNA)
# RNA: B1 RNA with U27C, C28A
# DNA 1: CAATCTGAATTCCGGTCTCCC
# DNA 2: TGGTGGCTACGACGGGATT
# B15: AUCCAUG (DNA:RNA)
# RNA: B5 RNA with C25A, C26U, A27C, U28C
# DNA 1: CAATCTGAATTCCGGTCTCCC
# DNA 2: TGGTGGCTACGACGGGATT
# B16: UUAAUUC (DNA:RNA)
# RNA: B5 RNA with C25U, C26U, U28A, A29U, G31C
# DNA 1: CAATCTGAATTCCGGTCTCCC
# DNA 2: TGGTGGCTACGACGGGATT
# B17: AAGUUGG (DNA:RNA)
# RNA: B1 RNA with G25A, U27G, C28U, C31G
# DNA 1: CAATCTGAATTCCGGTCTCCC
# DNA 2: TGGTGGCTACGACGGGATT
# B18: AUACGAG (DNA:RNA)
# RNA: B5 RNA with C25A, C26U, U28C, A29G, U30A
# DNA 1: CAATCTGAATTCCGGTCTCCC
# DNA 2: TGGTGGCTACGACGGGATT
# B19: GGGUGGU (DNA:RNA)
# RNA: B1 RNA with A26G, U27G, C28U, U29G, C31U
# DNA 1: CAATCTGAATTCCGGTCTCCC
# DNA 2: TGGTGGCTACGACGGGATT
# B20: CCCCGCA (DNA:RNA)
# RNA: B5 RNA with A27C, U28C, A29G, U30C, G31A
# DNA 1: CAATCTGAATTCCGGTCTCCC
# DNA 2: TGGTGGCTACGACGGGATT
# B21: UCGGUUA (DNA:RNA)
# RNA: B5 RNA with C25U, A27G, U28G, A29U, G31A
# DNA 1: CAATCTGAATTCCGGTCTCCC
# DNA 2: TGGTGGCTACGACGGGATT
# B22: CUAAACC (DNA:RNA)
# RNA: B5 RNA with C26U, U28A, U30C, G31C
# DNA 1: CAATCTGAATTCCGGTCTCCC
# DNA 2: TGGTGGCTACGACGGGATT
# B23: GUCUUGC (DNA:RNA)
# RNA: B1 RNA with A26U, U27C, C28U
# DNA 1: CAATCTGAATTCCGGTCTCCC
# DNA 2: TGGTGGCTACGACGGGATT
# B24: GUAGUGC (DNA:RNA)
# RNA: B1 RNA with A26U, U27A, C28G
# DNA 1: CAATCTGAATTCCGGTCTCCC
# DNA 2: TGGTGGCTACGACGGGATT
# B25: GAUCGGC (DNA:RNA)
# RNA: B1 RNA with U29G
# DNA 1: CAATCTGAATTCCGGTCTCCC
# DNA 2: TGGTGGCTACGACGGGATT
# B26: UCUAAAG (DNA:RNA)
# RNA: B5 RNA with C25U, A27U, U28A, U30A
# DNA 1: CAATCTGAATTCCGGTCTCCC
# DNA 2: TGGTGGCTACGACGGGATT
# B27: UUAUUUA (DNA:RNA)
# RNA: B5 RNA with C25U, C26U, A29U, G31A
# DNA 1: CAATCTGAATTCCGGTCTCCC
# DNA 2: TGGTGGCTACGACGGGATT
# B28: UCGUCAA (DNA:RNA)
# RNA: B5 RNA with C25U, A27G, A29C, U30A, G31A
# DNA 1: CAATCTGAATTCCGGTCTCCC
# DNA 2: TGGTGGCTACGACGGGATT
# B29: AGGUGUG (DNA:RNA)
# RNA: B5 RNA with C25A, C26G, A27G, A29G
# DNA 1: CAATCTGAATTCCGGTCTCCC
# DNA 2: TGGTGGCTACGACGGGATT
# B30: CUUUCGU (DNA:RNA)
# RNA: B5 RNA with C26U, A27U, A29C, U30G, G31U
# DNA 1: CAATCTGAATTCCGGTCTCCC
# DNA 2: TGGTGGCTACGACGGGATT
# B31: GGUAGUG (DNA:RNA)
# RNA: B5 RNA with C25G, C26G, A27U, U28A, A29G
# DNA 1: CAATCTGAATTCCGGTCTCCC
# DNA 2: TGGTGGCTACGACGGGATT
# Molecular target: T1, RBFOX1 RRM
# Test: EMSA; HiTS-Eq, 1 nM pool, 10 min; buffer printed only for the single-RNA assays: 10 mM Tris pH 7.5, 150 mM NaCl, 3.4 mM EDTA, 0.001% NP-40, 30 C
# Conditions: tags: His6 N-terminal (pET28a); label: 5' 32P
# Procedure, shortened: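 Purified RbFox RRM (wild type or mutant) was equilibrated for 10 min in 50 µL with 1 nM of a 5′-radiolabelled pool of RNA with 7 randomized nucleotides, its flanks annealed to DNA oligonucleotides, across increasing protein concentrations. Free RNA was separated by 8% native PAGE, excised, reverse-transcribed, PCR-barcoded and sequenced on an Illumina HiSeq 2500. Relative association constants came from read-count changes of each variant against the control reaction, normalised to the cognate motif.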
row,Binder,binding signal
1,B1,0.021 KA relative to UGCAUGU
2,B2,0.00515 KA relative to UGCAUGU
3,B3,0.0242 KA relative to UGCAUGU
4,B4,0.0134 KA relative to UGCAUGU
5,B5,0.00413 KA relative to UGCAUGU
6,B6,0.000947 KA relative to UGCAUGU
7,B7,0.00882 KA relative to UGCAUGU
8,B8,0.0135 KA relative to UGCAUGU
9,B9,0.0104 KA relative to UGCAUGU
10,B10,0.00836 KA relative to UGCAUGU
11,B11,0.0246 KA relative to UGCAUGU
12,B12,0.0226 KA relative to UGCAUGU
13,B13,0.00348 KA relative to UGCAUGU
14,B14,0.0109 KA relative to UGCAUGU
15,B15,0.00199 KA relative to UGCAUGU
16,B16,0.00411 KA relative to UGCAUGU

row,Binder,binding signal
1,B17,0.0125 KA relative to UGCAUGU
2,B18,0.00433 KA relative to UGCAUGU
3,B19,0.0199 KA relative to UGCAUGU
4,B20,0.0132 KA relative to UGCAUGU
5,B21,0.0134 KA relative to UGCAUGU
6,B22,0.0017 KA relative to UGCAUGU
7,B23,0.0291 KA relative to UGCAUGU
8,B24,0.0154 KA relative to UGCAUGU
9,B25,0.0137 KA relative to UGCAUGU
10,B26,0.00728 KA relative to UGCAUGU
11,B27,0.00999 KA relative to UGCAUGU
12,B28,0.00628 KA relative to UGCAUGU
13,B29,0.0178 KA relative to UGCAUGU
14,B30,0.012 KA relative to UGCAUGU
15,B31,0.0137 KA relative to UGCAUGU

# — paper PMC9911399, “Two distinct binding modes provide the RNA-binding protein RbFox with extraordinary sequence specificity”
